Measured values from the supplement of paper PMC7826260.
Some of the results follow. Each Rep nickase domain was tested in vitro on the same pool of single strands for 1 h at 37 °C with 3 µM enzyme; only the middle of the 90-letter strands is printed. Uncut reads are compared with the no-enzyme pool on a log2 scale; the lower, the more was cut; hits are not called. Counts are relative to all reads; values above 0 arise when much of the pool is cut.

Legend:
Assay in all cases: uncleaved DNA left, log2 of reads against the no-enzyme library (log2 ratio); higher = less cleavage (more negative = more Rep cleavage of the k-mer); sequences stand for … in CTCGTCCG…ACCGGAGA
[1] = tested on: T1, Rep nickase domain of Muscovy duck circovirus
T1 sequence (protein, residues 1-111, tag omitted): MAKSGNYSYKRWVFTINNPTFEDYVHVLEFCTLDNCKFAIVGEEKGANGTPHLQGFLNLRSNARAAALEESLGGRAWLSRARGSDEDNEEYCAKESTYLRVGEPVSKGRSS
Procedure: (§1)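 A pool of 90-nt single-stranded DNAs with seven random bases just before the constant AC of the nick site (name = the seven bases) was cut by 3 µM recombinant His6-SUMO-tagged Rep nickase domain (300 nM DNA, 50 mM HEPES pH 8.0, 50 mM NaCl, 1 mM MnCl2, 1 h, 37 °C, three replicates). Uncut DNA was amplified and sequenced.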

[2] = tested on: T2, Rep nickase domain of banana bunchy top virus
T2 sequence (protein, residues 1-94, tag omitted): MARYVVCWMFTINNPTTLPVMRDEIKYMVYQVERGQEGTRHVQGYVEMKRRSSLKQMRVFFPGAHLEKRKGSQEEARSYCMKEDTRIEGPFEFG
Procedure: as §1

[3] = tested on: T3, Rep nickase domain of cabbage leaf curl virus
T3 sequence (protein, residues 1-116, tag omitted): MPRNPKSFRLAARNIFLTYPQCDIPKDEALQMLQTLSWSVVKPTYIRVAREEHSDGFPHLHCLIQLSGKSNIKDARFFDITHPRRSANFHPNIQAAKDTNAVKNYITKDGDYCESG
Procedure: as §1

[4] = tested on: T4, Rep nickase domain of chickpea chlorotic dwarf virus
T4 sequence (protein, residues 1-124, tag omitted): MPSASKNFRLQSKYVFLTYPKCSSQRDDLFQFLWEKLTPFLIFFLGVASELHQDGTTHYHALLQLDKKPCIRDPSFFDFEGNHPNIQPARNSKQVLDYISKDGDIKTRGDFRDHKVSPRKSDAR
Procedure: as §1

[5] = tested on: T5, Rep nickase domain of faba bean necrotic yellows virus
T5 sequence (protein, residues 1-98, tag omitted): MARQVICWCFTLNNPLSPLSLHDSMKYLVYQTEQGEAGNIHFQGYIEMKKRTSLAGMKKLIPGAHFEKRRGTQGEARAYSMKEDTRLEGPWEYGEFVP
Procedure: as §1

[6] = tested on: T6, Rep nickase domain of maize striate mosaic virus
T6 sequence (protein, residues 1-117, tag omitted): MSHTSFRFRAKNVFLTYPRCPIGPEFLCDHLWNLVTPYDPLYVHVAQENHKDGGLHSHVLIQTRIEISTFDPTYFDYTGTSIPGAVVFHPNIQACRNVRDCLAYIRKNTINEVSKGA
Procedure: as §1

[7] = tested on: T7, Rep nickase domain of porcine circovirus 2
T7 sequence (protein, residues 2-116, tag omitted): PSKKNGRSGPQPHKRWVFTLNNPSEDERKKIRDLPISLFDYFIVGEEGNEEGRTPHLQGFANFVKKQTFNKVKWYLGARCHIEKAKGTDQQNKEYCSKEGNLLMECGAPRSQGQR
Procedure: as §1

[8] = tested on: T8, Rep nickase domain of tomato yellow leaf curl virus
T8 sequence (protein, residues 1-136, tag omitted): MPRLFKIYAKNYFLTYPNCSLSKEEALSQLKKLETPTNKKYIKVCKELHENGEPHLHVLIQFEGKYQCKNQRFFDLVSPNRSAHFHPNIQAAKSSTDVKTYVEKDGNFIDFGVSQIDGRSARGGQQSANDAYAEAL
Procedure: as §1

[9] = tested on: T9, Rep nickase domain of wheat dwarf virus
T9 sequence (protein, residues 1-137, tag omitted): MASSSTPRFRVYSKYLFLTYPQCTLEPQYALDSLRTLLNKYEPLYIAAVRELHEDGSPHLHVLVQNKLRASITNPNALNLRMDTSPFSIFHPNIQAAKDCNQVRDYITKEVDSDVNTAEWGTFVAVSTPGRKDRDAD
Procedure: as §1

| Sequence | uncleaved DNA left (log2) [1] | uncleaved DNA left (log2) [2] | uncleaved DNA left (log2) [3] | uncleaved DNA left (log2) [4] | uncleaved DNA left (log2) [5] | uncleaved DNA left (log2) [6] | uncleaved DNA left (log2) [7] | uncleaved DNA left (log2) [8] | uncleaved DNA left (log2) [9] |
| --- | --- | --- | --- | --- | --- | --- | --- | --- | --- |
| GTCCATT | 0.1 | 0.0549 | 0.352 | 0.97 | 0.117 | 1.7 | 0.0382 | 0.0836 | 0.269 |
| CAACGAA | -0.0148 | 0.022 | -0.19 | -0.907 | 0.0316 | -0.981 | -0.0277 | -0.157 | -0.105 |
| TCGCCGC | 0.0398 | -0.0178 | -0.36 | -0.469 | -0.0569 | -0.605 | 0.012 | 0.00485 | -0.165 |
| TAGACCC | 0.0795 | 0.00948 | 0.607 | 1.42 | 0.0143 | 1.88 | 0.0346 | 0.169 | 0.115 |
| TACGTGA | 0.201 | -0.123 | -0.0785 | -0.698 | 0.104 | -0.831 | 0.00373 | -0.0511 | -0.105 |
| CTCGAGC | 0.16 | 0.0229 | 0.154 | 0.496 | 0.179 | -0.523 | 0.157 | 0.103 | 0.00327 |
| TTAAAAT | 0.0609 | 0.0653 | 0.159 | -1.19 | 0.0177 | -0.0974 | -0.16 | -0.0112 | 0.0114 |
| CGAATGA | 0.153 | 0.0828 | 0.157 | 0.733 | 0.0386 | 1.64 | 0.255 | 0.058 | 0.179 |
| TGGCTCA | 0.0363 | 0.0653 | 0.299 | 0.141 | 0.127 | 0.46 | -0.0423 | 0.161 | 0.106 |
| CTTTTTT | -2.97 | -0.631 | -0.205 | -2.44 | -0.19 | -0.632 | -3.35 | 0.0595 | -0.0979 |
| TACTCTG | 0.0291 | 0.0602 | 0.0128 | -0.14 | 0.083 | 0.0205 | -0.177 | 0.0135 | -0.00144 |
| GTTAATT | 0.0598 | 0.131 | 0.483 | 0.696 | 0.0806 | 1.74 | 0.000486 | 0.175 | 0.211 |
| TTTGTCG | -0.256 | -0.188 | -0.885 | 0.417 | -0.0623 | -0.86 | -0.0854 | -0.16 | -0.287 |
| CCAAGAC | -0.0198 | 0.0513 | 0.0558 | 0.387 | -0.00548 | -0.0315 | 0.19 | 0.0681 | 0.134 |
| TGCAAAA | 0.0929 | 0.176 | 0.101 | 0.153 | 0.129 | -0.515 | -0.00659 | 0.0446 | 0.0543 |
| ACTGACG | 0.098 | 0.196 | -0.695 | -0.397 | 0.0977 | -1.06 | 0.13 | 0.184 | 0.0796 |
| TATCTAT | 0.0192 | -0.0342 | -0.0304 | -1.22 | -0.129 | 0.206 | -0.564 | -0.0823 | -0.0204 |
| GGGTGAT | -0.00729 | 0.102 | 0.676 | 1.83 | -0.142 | 2.14 | -0.335 | -0.0484 | 0.0143 |
| GTCGAGC | 0.125 | 0.116 | 0.504 | 0.999 | 0.129 | 1.2 | 0.255 | 0.205 | 0.193 |
| CGTAGGG | -0.104 | -0.0926 | -0.174 | 0.242 | -0.0432 | -0.518 | 0.0463 | -0.0828 | -0.0605 |
| AGAGCCG | -0.0103 | 0.0447 | -0.392 | -0.127 | -0.0825 | -0.79 | 0.116 | -0.0487 | -0.0872 |
| CGTGGTC | -0.0477 | -0.0302 | 0.254 | 0.363 | 0.107 | 0.0952 | 0.101 | -0.0427 | -0.0137 |
| CGAAAAC | 0.0719 | -0.0042 | -0.0166 | -0.241 | 0.0566 | -0.549 | 0.105 | -0.0149 | 0.105 |
| CGTAAGG | 0.117 | 0.0647 | 0.19 | 0.875 | 0.0791 | 0.836 | 0.0836 | 0.0418 | 0.0416 |
| ACATTAA | -0.0872 | -0.0692 | -0.256 | -0.332 | -0.106 | -0.815 | 0.0755 | -0.109 | -0.0229 |
| CACGCAA | -0.0222 | -0.044 | -0.123 | -0.622 | 0.00321 | -0.713 | 0.00614 | -0.0613 | 0.116 |
| GTCCTTC | 0.0187 | -0.0975 | 0.24 | 0.736 | -0.157 | 1.44 | -0.013 | -0.0378 | -0.0493 |
| GAAAGCA | -0.0044 | -0.0265 | -0.0736 | -0.737 | -0.0387 | -0.374 | -0.104 | -0.0375 | -0.0046 |
| GGTTTGC | -0.0747 | -0.125 | -0.284 | -0.0845 | -0.159 | -0.504 | 0.00255 | -0.0298 | -0.137 |
| AGGGTGC | 0.0605 | 0.0243 | -0.137 | 0.00901 | 0.0607 | -0.547 | 0.212 | 0.104 | 0.0286 |
